# Measured values as given in PubChem BioAssay AID485294 (National Center for Advancing Translational Sciences (NCATS), 2010).
# Among all 370,000 compounds or so, about 150 (0.041%) were called active. Inconclusive means that the source gave no clear call. Such entries were picked first, then a sample of the others. The call rests on the fitted dose curve; in most records, active means well fitted inhibition curve with a large enough effect; inconclusive means small, poorly fitted or top-dose-only effect; inactive means flat fitted curve, though single readings scatter. Potencies of inconclusive entries are left out as doubtful fits.
# Biological target: Beta-lactamase (Escherichia coli (strain K12)) (UniProt P00811)
# Experiment: qHTS Inhibitors of AmpC Beta-Lactamase (assay with detergent); further: nearly all actives have a fitted effect of over 25% in size
# Conditions: AmpC hydrolysis of nitrocefin, absorbance 480 nm, 0.01% Triton; series mostly up to 114 µM
# Outline: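 AmpC (5.3 nM in the dispensed reagent) in 20 mM phosphate pH 7.0 with 0.01% (detergent screen) or 0.0001% Triton X-100 was preincubated with compounds for 15 min at room temperature. Nitrocefin was then added from an 800 uM solution, and hydrolysis was followed at 480 nm.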
# Potency means the concentration at half of the fitted maximal effect; tags describe the fitted curve by direction and shape.
# Chain of UniProt P00811 (P00811 whole entry, looked up): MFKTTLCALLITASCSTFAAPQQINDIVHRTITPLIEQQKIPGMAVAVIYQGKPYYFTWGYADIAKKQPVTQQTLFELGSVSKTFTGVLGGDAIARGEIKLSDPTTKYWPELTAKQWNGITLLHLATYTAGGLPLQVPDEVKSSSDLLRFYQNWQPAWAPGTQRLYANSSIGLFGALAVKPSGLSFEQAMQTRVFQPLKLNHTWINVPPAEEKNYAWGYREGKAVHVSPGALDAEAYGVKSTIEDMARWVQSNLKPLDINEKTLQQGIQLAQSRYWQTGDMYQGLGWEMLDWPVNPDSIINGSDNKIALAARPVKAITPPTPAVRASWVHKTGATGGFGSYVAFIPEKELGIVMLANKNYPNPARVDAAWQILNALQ
row,Compound,Potency
1,CCN1C(=O)/C(=C/C=C2/SCCN2C)SC1=S,"inconclusive [inhibitor, full curve, poor fit]"
2,O=C(O)CSCC(=O)c1ccccc1,"inconclusive [inhibitor, single point]"
3,Cc1ccccc1C(=O)Nc1cccc(-c2ccc(N3CCOCC3)nn2)c1,"inconclusive [inhibitor, full curve, poor fit]"
4,CN(Cc1ccccc1F)C(=O)CCNC(=O)c1ccc(C(C)(C)C)cc1,inactive
5,COC(=O)N/N=C(\C)c1ccc(Br)cc1,inactive
6,Cc1ccc(C(O)c2nc3ccccc3n2C)cc1 (stereo not given),inactive
7,CC(=O)OCC(=O)[C@H]1CC[C@H]2[C@@H]3CCC4=CC(=O)CC[C@]4(C)[C@H]3CC[C@]12C,inactive
8,COC(=O)c1ccc(C(=O)NC2CCCc3c2cnn3-c2ccc(C)c(C)c2)cc1 (stereo not given),"inconclusive [inhibitor, full curve, poor fit]"
9,Cc1ccccc1NC(=O)Cn1nnc2ccccc21,"inconclusive [inhibitor, partial curve]"
10,CCn1c(CC(=O)Nc2ccc(C)cc2)nnc1SCC(=O)NCc1ccccc1,"inconclusive [inhibitor, partial curve]"
11,CCOc1ccc(C)cc1-n1nc2ccccc2n1,"inconclusive [inhibitor, single point]"
12,O=C(Cc1ccccc1)NCC1CCCO1 (stereo not given),"inconclusive [inhibitor, single point]"
13,O=[N+]([O-])c1ccccc1NCCOc1ccccc1,"inconclusive [inhibitor, full curve, poor fit]"
14,CCn1c(SCC(=O)N2CCCc3ccccc32)nnc1-c1c[nH]c2ccccc12,"inconclusive [inhibitor, full curve]"
15,c1ccc(-c2onc(-c3ccco3)c2-c2ccc3[nH]ccc3c2)cc1,"inconclusive [inhibitor, full curve]"
16,Cc1ccc(NC(=O)CN2CCc3ccccc3C2)cc1S(=O)(=O)N1CCOCC1,"inconclusive [inhibitor, full curve, poor fit]"
17,Cc1nc2cc(C(F)(F)F)ccc2n1CCNc1nc(-c2cc(Cl)c(N)c(Cl)c2)cs1,"inconclusive [inhibitor, partial curve]"
18,O=C(OCc1ccc([N+](=O)[O-])cc1)c1cc(S(=O)(=O)N2CCCCC2)ccc1N1CCOCC1,"inconclusive [inhibitor, full curve, poor fit]"
19,CCNC(=O)/C(C#N)=C/c1c(N2CCN(Cc3ccc4c(c3)OCO4)CC2)nc2c(C)cccn2c1=O,"inconclusive [inhibitor, full curve, poor fit]"
20,Cc1cccc(N2CC34C=CC(O3)C(C(=O)O)C4C2=O)c1 (stereo not given),"inconclusive [inhibitor, full curve, poor fit]"
21,O=C(O)CN(c1ccccn1)S(=O)(=O)c1ccccc1,inactive
22,COCCCn1c(=N)c(C(=O)NCC2CCCO2)cc2c(=O)n3cc(C)ccc3nc21 (stereo not given),inactive
23,O=C(CCCc1nc2ccccc2s1)NCc1ccccc1,"inconclusive [inhibitor, full curve]"

row,Compound,Potency
1,N/C(=N\OC(=O)c1ccc2ccccc2c1)c1ccccn1,"inconclusive [inhibitor, full curve]"
2,CN(C)/C=C1\SC(=S)N(c2ccc(F)cc2)C1=O,inactive
3,CC(=O)NCCC(=O)N1CCCC(N(C)CCc2ccccc2)C1 (stereo not given),"inconclusive [inhibitor, single point]"
4,CCOc1ccccc1C(=O)NC(CO)C(=O)O (stereo not given),inactive
5,O=C(Nc1ccccc1)c1ccc(N2CCN(c3ccccc3)CC2)c(S(=O)(=O)N2CCOCC2)c1,"inconclusive [inhibitor, single point]"
6,O=C(COC(=O)Cc1c[nH]c2ccccc12)NCCc1ccccc1,"inconclusive [inhibitor, full curve, poor fit]"
7,CC(C)(CNC(=O)CCC1CCCC1)CNC(=O)CCC1CCCC1,inactive
8,CC1=NN(C(=O)CSCc2ccccc2)C(O)(c2ccccc2)C1 (stereo not given),inactive
9,COc1cccc(OCc2cc(C(=O)N3CCN(c4ccccc4OC)CC3)no2)c1,"inconclusive [inhibitor, single point]"
10,O=C1c2ccccc2-c2nnc(-c3ccc(F)cc3)cc21,inactive
11,CC(C)n1cnc2c(N(C)c3ccccc3)nc(N(CCN(C)C)Cc3ccccc3)nc21,inactive
12,N#CCCn1nnc(-c2ccccc2F)n1,"inconclusive [inhibitor, partial curve, poor fit]"
13,S=c1nc(-c2ccccc2)n(Cc2cccnc2)c2c1CCCC2,inactive
14,CC(C)(C)C(=O)N/C(N)=N/c1nc2ccccc2o1,inactive
15,CCc1ccc2[nH]c3nc(SCCN4CCOCC4)nnc3c2c1,"inconclusive [inhibitor, partial curve, poor fit]"
16,O=C(NC12CC3CC(CC(C3)C1)C2)c1cccnc1Cl,"inconclusive [inhibitor, full curve, poor fit]"
17,O=C(CSc1oc(-c2ccccc2)nc1S(=O)(=O)c1ccc(F)cc1)NCC1CCCO1 (stereo not given),"inconclusive [inhibitor, single point]"
18,Cc1cc(Cl)ccc1OCc1cn2cccnc2n1,"inconclusive [inhibitor, partial curve, poor fit]"
19,COc1ccc(C(=O)NCCOc2ccccc2Cl)c(OC)c1OC,inactive
20,CCN(CC)S(=O)(=O)c1ccc(N2CCOCC2)c(NC(=O)Cc2cccc3ccccc23)c1,"inconclusive [inhibitor, partial curve, poor fit]"
21,Cn1c(CNC(=O)CNC(=O)Cc2ccc(F)cc2)cc(=O)n(C)c1=O,"inconclusive [inhibitor, full curve, poor fit]"
22,O=C(c1ccc(Br)cc1)N(Cc1nc2ccccc2c(=O)[nH]1)C1CCCC1,inactive
